Target: T1, recombinant His6-tagged HP1β W170A (human, UniProt P83916 1-185, W170A)
T1 construct: human HP1β (GenBank BC002609) with tryptophan 170 changed to alanine; also called W170A mutant (mt) His6-HP1β; mutant HP1β W170A protein; source: recombinant; not shown: His6, N-terminal, kept
Assay: pull-down; H3 peptides on magnetic beads, recombinant His6-HP1 proteins added (in TNT reticulocyte lysate with ADNP-FLAG); anti-His6 western blot
Details: both partners purified

T1 sequence (P83916 whole entry W170A): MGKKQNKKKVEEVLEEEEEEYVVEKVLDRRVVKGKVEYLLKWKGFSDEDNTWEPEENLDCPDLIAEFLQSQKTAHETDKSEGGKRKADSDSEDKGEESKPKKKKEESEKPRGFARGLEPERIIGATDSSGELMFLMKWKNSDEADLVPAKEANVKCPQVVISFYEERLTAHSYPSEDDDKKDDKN

binding result: binds
B1: H3K9me3 peptide, …(me3)…-biotin (peptide)
peptide: not shown
modifications: trimethyl-lysine at K9; biotinylated lysine residue at the C-terminus
notes: histone H3 N-terminal tail, K9 trimethylated; added C-terminal lysine that carries the biotin; immobilised on magnetic beads through the biotin; also called H3K9me3 matrix; H3 ([…]) trimethylated at lysine 9; source: synthetic peptide
